Reference: PubChem BioAssay AID686970 (National Center for Advancing Translational Sciences (NCATS), 2013)
In all, about 360,000 compounds went through this assay and about 6,000 (1.7%) were called active. The shares of active, inactive and inconclusive entries below differ from those in the screen. Calls come from the whole dose curve; as a rule, active = well fitted cell-killing curve with a large enough effect; inconclusive = small, poorly fitted or top-dose-only effect, or effect the other way; inactive = flat fitted curve, though single readings scatter. Potencies of inconclusive entries are left out as doubtful fits.

assay: qHTS for induction of synthetic lethality in tumor cells producing 2HG: qHTS for the HT-1080-NT fibrosarcoma cell line; settings: HT-1080-NT fibrosarcoma viability, CellTiter-Glo ATP luminescence, 48 h; activity, negative = less viability: at 46.1 µM (top of the series) unless noted;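 note: NT is the 2HG producing partner of a matched IDH1 knockdown line; nearly all actives have a fitted effect of over 55% in size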;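 for activity, negative = less viability: 0% = DMSO-treated cells and -100% = media-only wells without cells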
Outline: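 HT-1080-NT fibrosarcoma cells (2HG-overproducing), 750 cells/well in RPMI with 5% FBS, dosed after 2 h and incubated 48 h at 37C. CellTiter-Glo luminescence normalized to DMSO and no-cell wells; concentration-response curves fitted and classed.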
Potency is the fitted concentration of half-maximal effect; tags give direction and shape of the fitted curve.

Structure (SMILES) | Potency | activity, negative = less viability
CCOc1ccc(NS(=O)(=O)c2ccc(-c3cnc(C4CC4)o3)cc2)cc1 | inconclusive [cytotoxic, single point] | 
COc1cccc(-c2nnc(Nc3nc4c(F)cccc4s3)o2)c1 | active: 7.94 µM | 
CC(=O)Oc1cc2c(cc1Cl)C1(CC(c3ccccc3Cl)O2)CC(C)(C)NC(=S)N1 (stereo not given) | active: 16.4 µM | 
COc1cccc(-c2nnc(NC(=O)c3ccc(S(=O)(=O)N(CC(C)C)CC(C)C)cc3)o2)c1 | inconclusive [cytotoxic, full curve] | 
CCOC(=O)c1ccc(NC(=O)Cn2ccc([N+](=O)[O-])n2)cc1 | inconclusive [rising, single point] | 
OC(COC(c1ccc(Cl)cc1)c1ccc(Cl)cc1)CN1CCN(c2ccccn2)CC1 (stereo not given) | inconclusive [cytotoxic, single point] | 
Nc1cc(S(=O)(=O)N2CCCCC2)ccc1Oc1ccc(Cl)cc1 |  | inactive: 0.26%
FC(F)(F)c1ccccc1-c1nc(-c2ccncc2)no1 |  | inactive: 0.0866%
COc1cccc(CN(C)C(=O)c2cc(COc3ccc4ncccc4c3)on2)c1 |  | inconclusive: -10.2% [cytotoxic]
Cc1ccc(C(C)NC(=O)/C(C#N)=C\c2c(C)[nH]c3ccccc23)cc1 (stereo not given) | inconclusive [cytotoxic, single point] | 
Cc1ccc(S(=O)(=O)N2CCN(C(=O)CCc3nc4ccccc4c(=O)[nH]3)CC2)c(C)c1 | inconclusive [cytotoxic, partial curve] | 
O=C(NC(=S)N1CCN(c2ccc(F)cc2)CC1)c1ccccc1 |  | inactive: -16.5%
Cc1cc(/C=C(/C#N)c2cccc(F)c2)c(C)n1-c1cccnc1 | inconclusive [cytotoxic, single point] | 
COC(OC)c1ccc(C#N)c(=O)[nH]1 |  | inactive: 0.321%
O=C(N/N=C1/CC2CCC1C2)c1cc2ccccc2cc1O (stereo not given) | inconclusive [cytotoxic, single point] | 
COc1ccc(Cl)cc1S(=O)(=O)N1CCN(C(=O)c2n[nH]c(=O)c3ccccc23)CC1 | inconclusive [cytotoxic, partial curve] | 
N#CCCN(C(=O)CCl)c1cccc(Cl)c1 | inconclusive [cytotoxic, single point] | 
CCO[C@@H]1OC(C(=O)Nc2ccccc2)=C[C@H](c2ccc(Br)cc2)[C@H]1CCCO | inconclusive [cytotoxic, single point] | 
Cc1ccc(S(=O)(=O)Oc2ccc(/C=N/NC(=O)c3cccnc3)cc2)cc1 | inconclusive [cytotoxic, single point] | 
CN(C(=O)c1ccc(S(=O)(=O)N(C)C)cc1)c1ccc2ccccc2c1 |  | inactive: 2.07%
Cn1ccc2c(-c3ccc(C(C)(C)C)cc3)cc3c(c21)C1CCC3O1 (stereo not given) | inconclusive [cytotoxic, single point] | 
O=C1CC(c2ccccc2F)c2cc3c(cc2N1)CCC3 (stereo not given) | active: 1.58 µM | 
COc1cc(CNCCSc2nnnn2C)cc(Br)c1OCc1ccc(F)cc1 | inconclusive [cytotoxic, single point] | 
CCN(CC(=O)NCc1ccc(F)cc1)C(=O)/C=C/c1ccc(S(=O)(=O)N(CC)CC)cc1 | active: 16.4 µM | 
COc1ccc(Cl)cc1C(=O)NCCCSc1ccccc1 |  | inactive: 6.16%

Structure (SMILES) | Potency | activity, negative = less viability
N#Cc1cc(C#N)c(N2CCN(c3cccc(Cl)n3)CC2)nc1N | inconclusive [cytotoxic, single point] | 
O=C(c1ccco1)N1CCN(c2ncnc3scc(-c4ccccc4)c23)CC1 | active: 7.31 µM | 
CC(C)(C)C(=O)Nc1ccc2c(c1)C(=O)C(=O)c1ccccc1-2 | active: 0.794 µM | 
COc1cc(CNCCO)cc(Br)c1OCc1cccs1 | inconclusive [cytotoxic, partial curve] | 
CCCCCCCCCCCCCCCC[n+]1ccc(C(N)=O)cc1 |  | inactive: -4.24%
CCCCOc1ccc(S(=O)(=O)N2CCN(C)CC2)cc1 |  | inactive: 0.81%
Cc1ccc(CNC(=O)CS(=O)(=O)Cc2nc(-c3ccccc3F)oc2C)cc1 |  | inactive: -0.365%
O=C(CSc1nnnn1C1CCCC1)NCCc1ccccc1 | inconclusive [rising, partial curve] | 
Cc1ccc(C(=O)Nc2cnc3ccccc3c2)cc1 |  | inactive: -4.23%
CN(CCc1ccccc1)C1CCCN(S(=O)(=O)c2cccc(F)c2)C1 (stereo not given) |  | inactive: -6.62%
CS(=O)(=O)N(Cc1ccccc1)c1ccc(C(=O)N2CCN(c3cccc(Cl)c3)CC2)cc1 | inconclusive [cytotoxic, single point] | 
CCOc1ccc(-c2n[nH]c(C)c2Oc2ccccc2OC)c(O)c1 | inconclusive [cytotoxic, single point] | 
COCCN1CCN(Cc2cn(C)nc2-c2ccc(Oc3ccccc3)cc2)CC1 | inconclusive [cytotoxic, single point] | 
N#C/C(=C\c1cccc(Br)c1)C(=O)N1CCCCC1 | active: 23.1 µM | 
Cc1ccccc1-c1ncc(CN2CCC(CO)(CCCc3ccccc3)CC2)cn1 |  | inactive: -17.5%
COc1ccc(Nc2nc3cc(C)ccc3cc2C#N)c(OC)c1 |  | inactive: -25%
O=c1[nH]c(=O)n(Cc2ccco2)c2c1C(C(F)(F)F)(C(F)(F)F)N=C(CCc1ccccc1)N2 | inconclusive [cytotoxic, single point] | 
COc1ccc(NC(=O)c2ccccn2)cc1 | inconclusive [cytotoxic, single point] | 
Nc1ccc2nc(SCC(=O)Nc3ccc(N4CCOCC4)c(Cl)c3)sc2c1 | inconclusive [cytotoxic, partial curve, poor fit] | 
CCN1CCCC1CN(Cc1cc2ccc(C)cc2[nH]c1=O)C(=S)Nc1ccc(OC)cc1OC (stereo not given) | inconclusive [cytotoxic, partial curve] | 
Oc1ccc(N2CCN(C(=S)NCc3ccccc3)CC2)cc1 | active: 9.2 µM | 
Cc1cc(C)cc(NC(=O)C(Nc2ccccc2)c2ccccc2)c1 (stereo not given) |  | inactive: -8.54%
CCN(CC)CCNC(=O)c1cc(-c2ccc(Br)s2)nc2ccccc12 | active: 18.4 µM | 
S=C(NN=Cc1ccccn1)Nc1ccccn1 | inconclusive [cytotoxic, partial curve] | 
OC1CCC(Nc2ncnc3sccc23)CC1 (stereo not given) |  | inactive: -10.1%

Structure (SMILES) | Potency | activity, negative = less viability
COc1ccc(-c2cc(-c3cccs3)nc(OC)c2C#N)cc1OC | inconclusive [cytotoxic, single point] | 
Cc1cc2[nH]c3c(c[n+](C)c4ccccc34)c2cc1C | inconclusive [cytotoxic, single point] | 
Cc1cccc(C(=O)O/N=C(\N)c2ccccn2)c1 | inconclusive [cytotoxic, partial curve] | 
Cc1ccc(-n2nnnc2Sc2nc([N+](=O)[O-])nn2C)cc1 | inconclusive [cytotoxic, single point] | 
Cc1ccc2c(c1)N(C)/C(=C/c1cccc[n+]1CCO)S2 | inconclusive [cytotoxic, partial curve] | 
Cc1ccc(-c2csc3ncnc(NCCN4CCOCC4)c23)cc1 |  | inactive: -27.7%
Nc1cc(S(=O)(=O)N2CCOCC2)ccc1Oc1cccc(Br)c1 | inconclusive [cytotoxic, single point] | 
CCNc1nc2nonc2nc1NCC |  | inactive: 1.12%
Cc1cc(C)c(C(CC(=O)c2cccs2)C(C#N)C#N)c(C)c1 (stereo not given) | inconclusive [cytotoxic, single point] | 
O=C(CC1SC(=Nc2ccccc2)N(CCCO)C1=O)Nc1ccc(Cl)cc1 (stereo not given) | inconclusive [cytotoxic, single point] | 
OCC1(Cc2ccc(Cl)cc2)CCN(CCCc2ccccc2)CC1 | inconclusive [cytotoxic, partial curve] | 
CCC(=O)Nc1ccc(-c2ccc(N3CCCCC3)nn2)cc1 | inconclusive [cytotoxic, single point] | 
O=C(NCc1ccco1)C1CCCN1C(=O)Nc1ccc(Br)cc1 (stereo not given) | inconclusive [rising, partial curve, poor fit] | 
COc1cccc(NC2c3ccccc3C(=O)N2Cc2ccccc2Cl)c1 (stereo not given) | inconclusive [cytotoxic, single point] | 
CC(C)Oc1ccc(CN2CCC2(C)C(=O)Nc2cccc(Oc3ccccc3)c2)cc1 (stereo not given) |  | inactive: 15.6%
COc1ccc(F)cc1C(=O)C1CCCN(C(=O)c2ccccc2N(C)C)C1 (stereo not given) | inconclusive [cytotoxic, single point] | 
CC1C(=O)C(C)C(c2cc(Cl)ccc2O)NC1c1cc(Cl)ccc1O (stereo not given) | active: 16.4 µM | 
O=C1NC(=O)C([N+](=O)[O-])=C(O)C1=O |  | inactive: 0.456%
CC(C)(C)NC(=O)C(c1ccc(F)cc1)N(C(=O)CCC(=O)Nc1ccccn1)C1CCCC1 (stereo not given) |  | inactive: 7.2%
Oc1ccc(Br)cc1-c1ccnn1-c1ccccc1 | inconclusive [cytotoxic, single point] | 
COc1ccc(C)cc1NC(=O)CSc1nc2scc(C)c2c(=O)[nH]1 | inconclusive [cytotoxic, single point] | 
Cc1ccc2c(c1)c1c3n2CCN(CC(N)=O)C3CCC1 (stereo not given) |  | inactive: -2.56%
COc1cccc(/C=C/C(=O)c2ccc(NS(=O)(=O)c3ccc(C)cc3)cc2)c1 | inconclusive [cytotoxic, partial curve] | 
CC(C(=O)NC1CCCC1)N1CCN(Cc2ccccc2)CC1 (stereo not given) |  | inactive: 16.5%
O=C(Nc1c(C(=O)c2ccccc2)oc2ccccc12)c1cc(-c2ccccc2O)n[nH]1 | inconclusive [cytotoxic, single point] | 
